# Measurements from the supplement of paper PMC4166925.
# ± gives the standard deviation of the averaged measurements. Over roughly 33,000 sequences, “E-score (dimensionless, -0.5 to 0.5)” has its median near -0.049; the highest 2% begin near 0.37. The list shows a part of the results.
# System: T1, PmTbr T-box DNA-binding domain (GST fusion)
# T1 sequence: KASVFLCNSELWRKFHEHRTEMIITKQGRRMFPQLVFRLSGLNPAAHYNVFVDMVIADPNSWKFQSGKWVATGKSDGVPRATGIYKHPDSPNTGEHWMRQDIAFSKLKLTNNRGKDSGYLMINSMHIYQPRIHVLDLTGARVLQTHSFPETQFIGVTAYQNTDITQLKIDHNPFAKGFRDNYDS
# Assay: PBM E-score of 8-mer (E-score (dimensionless, -0.5 to 0.5)); Tbr is Tbrain of the sea star Patiria miniata (Pm) or the sea urchin Strongylocentrotus purpuratus (Sp); higher = stronger binding preference; most listed sequences are background and not binding sites
# Conditions: the construct has about 5 more residues each side
# Experimental: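 Universal protein-binding microarray (Agilent AMADID 016060, 60-bp probes with a 35-bp variable region) incubated with 200 nM GST-fused Patiria miniata Tbr T-box DNA-binding domain (residues 272-466) in PBS pH 7.5. Scored for every ungapped 8-mer (given with its reverse complement) by the Universal PBM Analysis Suite as E-score (modified Wilcoxon-Mann-Whitney enrichment, range -0.5 to 0.5; >0.45 counts as bound) and Z-score of median probe intensity. Two replicate arrays (datasets 1 and 2).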
row,Sequence,PBM E-score of 8-mer
1,AAAATTTA,-0.0482 ± 0.12
2,CCTGTAAG,0.0373 ± 0.00038
3,CTCGCATA,0.00218 ± 0.012
4,ACTAGTCA,0.164 ± 0.044
5,AAGGGTTG,-0.168 ± 0.083
6,CCCGATAC,-0.0171 ± 0.087
7,GTGCCAAA,0.421 ± 0.017
8,AAGTTACC,-0.0772 ± 0.12
9,CTACGAAC,-0.0158 ± 0.05
10,CCGGCCCA,-0.21 ± 0.028
11,AAATATCA,0.0842 ± 0.04
12,ATACAGAT,-0.18 ± 0.039
13,TCTGAACA,-0.0597 ± 0.01
14,CTATTAGA,-0.169 ± 0.027
15,CCAATAGG,-0.0695 ± 0.022
16,ATGGTCTA,-0.164 ± 0.019
17,GAAACGTC,-0.0475 ± 0.0032
18,AGAGTGAT,0.239 ± 0.0043
19,GTTAATTA,-0.00681 ± 0.058
20,CTTTAACA,0.193 ± 0.087
21,AGCCGGGA,-0.163 ± 0.0056
22,ATGTCAGC,0.00315 ± 0.0099
23,ACGGTTCT,0.038 ± 0.039
24,ATGTTCTC,0.0209 ± 0.0069
25,CTACTTTC,-0.0345 ± 0.024
26,CGCGGCGA,0.138 ± 0.047
27,AACGGACG,-0.0533 ± 0.013
28,AGTTATGA,-0.125 ± 0.029

row,Sequence,PBM E-score of 8-mer
1,ATCGAGTA,-0.143 ± 0.01
2,CTTTGTGC,-0.066 ± 0.038
3,TCCACTCA,-0.188 ± 0.056
4,CCGCATTA,-0.146 ± 0.0002
5,ATACCCTC,-0.0136 ± 0.011
6,AAAATAAA,-0.212 ± 0.14
7,GTGTGCGA,0.3565 ± 0.0019
8,CGGTCGAC,0.0978 ± 0.064
9,GTTGAGGA,-0.0472 ± 0.011
10,TGATGCCA,0.0165 ± 0.0068
11,CGGTTGTA,0.039 ± 0.047
12,ATTCAAAA,-0.33 ± 0.11
13,CGGCGAAC,0.0485 ± 0.017
14,ACGAACTA,-0.0663 ± 0.02
15,CTCTTCAA,-0.0317 ± 0.004
16,GATTTTCC,0.0421 ± 0.019
17,AAACTGAC,0.0348 ± 0.024
18,ACTAATAG,0.0141 ± 0.015
19,TCGGTCCA,-0.365 ± 0.015
20,GTACTGTA,-0.238 ± 0.0064
21,ATGGCGAC,0.0973 ± 0.027
22,AGCGAAGA,0.133 ± 0.047
23,AAGCTCCG,-0.199 ± 0.029
24,AAACACAG,-0.1523 ± 0.00079
25,TCGTCAAA,0.0991 ± 0.053
26,CCCGTTAC,0.0158 ± 0.019
27,CTACGGTA,-0.109 ± 0.049
